Some of the results follow.
Test system: PfSIP2 AP2 domain 1 (GST-tagged)
Assay: gcPBM binding intensity (ln(normalized median fluorescence intensity)); higher = stronger DNA binding
Method in brief: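 Alexa488 anti-GST antibody, scanned at 488 nm, detected GST-tagged P. falciparum DNA-binding domains that had been expressed in E. coli and incubated for 1 h on an Agilent 4 × 180k array. The array carried primer-extended double-stranded 36-bp intergenic genomic probes and negative controls. Binding intensity is the highest Masliner-normalised natural-log median intensity across replicate spots of either orientation of each probe.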

| Sequence | gcPBM binding intensity (ln) |
| --- | --- |
| TATATATATACATACGTACACACAAATATTAAAATA [CACACA_site1950] | 8.15 |
| TAAAAAAAATAGAAACGTACATAAAAAATAAATAAT [XGTACX_site5796] | 7.24 |
| TCATATAAAACATGCACACATATGTACTCTTATAAA [CACACA_site3748] | 7.44 |
| TTTATTAATGGACACACACACACACCCAAAATAAAA [CACACA_site4294] | 7.44 |
| TATATTTATATATGTTGTACTCTCCAATAATATTCC [XGTACX_site4438] | 6.91 |
| TTTAATATATATATGTGTACATATAAATTATATATA [XGTACX_site8511] | 6.99 |
| TTTATATTTTAAAAAATAATATTATGTATTTTTAAA [TGCATGCA_negctrl_site507] | 6.68 |
| GTACTTATTAAATGTGCATGTTGATATATAAATGTA [TGCATGCA_site902] | 9.03 |
| ATATAATAAACGTGTACACAATTAAATTATTATATA [CACACA_site5017] | 7.47 |
| ATATACATAAAAATATGTACATATAAAATATATACA [XGTACX_site2394] | 7.2 |
| TAGACTCCCAGACACACACACACACCCATATAATAT [CACACA_site593] | 6.99 |
| TTTTTTTTTTTTGGTGCATGCACATTTTGTTTTTTT [TGCATGCA_site570] | 10 |
| TATTATTATTGTTGATGTACATTTAATATAATATAT [XGTACX_site4482] | 7.13 |
| TTTTTAAAAAAATTGATTCTTTTTCTTTTTTTTCTT [XGTACX_negctrl_site127] | 6.42 |
| TTTTTTGCTTGGGTGAGAAAAAATAAAATAAAGGAA [TGCATGCA_negctrl_site139] | 7.44 |
| TTATAATCTTTTGGTTCTATAGAATATCAAAAAATA [CACACA_negctrl_site1149] | 6.98 |
| AAAAAATAAAAGGAAAAAAAAAAAAAAAAAAAAAAT [CACACA_negctrl_site635] | 6.7 |
| TATTATTGTCATTTTTTTTTTTTTTTTTTCTATTTC [XGTACX_negctrl_site114] | 6.71 |
| TTATTAAAAATGTATTGTACAAATTTATTAGTAAAT [XGTACX_site4799] | 7.13 |
| ATTTATACAAAGCTTCGTACATAATGTATTCTTTTT [XGTACX_site2166] | 6.76 |
| TTTTAATTGTTTATTTGTACATATGTTTAATTATAT [XGTACX_site571] | 7.29 |
| CCCGAACAAACAAATAAACACACAAAAAAAAATATA [CACACA_site8540] | 7.05 |

| Sequence | gcPBM binding intensity (ln) |
| --- | --- |
| TATTGAAAAAATAAAAGTACAAACTCTTATAATATG [XGTACX_site8196] | 7.2 |
| AACACATACAAACACACACACAAAAAAAAAAAAAAA [CACACA_site393] | 7.29 |
| ATTATATATGTATGGTGTACTAAGAATATTTTTTTA [XGTACX_site1950] | 7 |
| ATTCAATATAAATACACACACACTTTTAATAATTAA [CACACA_site5963] | 7.04 |
| CTAAACAAAAAATAATGTACACATACATAAAAAATA [XGTACX_site1808] | 7.04 |
| AAAAAAACGATCGATCGTACTTATATTTACACATTC [XGTACX_site2883] | 6.87 |
| ACATTCAATAAACGTCGTACACTTTCCTTTTTATGA [XGTACX_site3274] | 7.27 |
| ACATGGTGATAATACTGTACAAAAATAAATAAATAC [XGTACX_site897] | 7.11 |
| TTATTTTTCTAAAAAGCATGCAAATAAAGATATGAA [TGCATGCA_site1032] | 7.12 |
| TTGTTTGGTTATAATTGTACGCATGTAATTACATAT [XGTACX_site4972] | 7.33 |
| TTTTATAGTCTTATGGGTACAAAATATTAACCCACG [XGTACX_site1131] | 6.99 |
| ATATATATTTTATTATGTACTTACTTCTTTTCTTAA [XGTACX_site6163] | 7.21 |
| ATTCACTGGTATGCATGAAAAAAAATATTATTATAA [CACACA_negctrl_site702] | 7.37 |
| TATATATATTTATACACACACATATATTTATATATT [CACACA_site484] | 7.36 |
| TTATGTGTATACTAAGAACACACAAGTTACTTGGTG [CACACA_site8467] | 6.59 |
| TGAATACTTATGTTCGCACACATGCAAATTAAAAAA [CACACA_site4048] | 7.86 |
| ATTTTGATAACCGTACGTACATATATATATATATAT [XGTACX_site6605] | 9.64 |
| TTAGTGTATTAATTCTCACACACTAAGAAAAAAAAA [CACACA_site3878] | 6.93 |
| ATAAATCCATGGGTAGTGCGCATTTTTTTTTTTTTT [GTGCAC_site9732] | 8.74 |
| ATAAAATGTATATGAATGCACTTGAAGTTTTTTTTT | 7.31 |
| TCTCCTTGTTCCTTTTTTTTAAAAAAAAACATTAAA [CACACA_negctrl_site679] | 7.58 |
| TATATGTGACATGAATGTACCCAAATTATATAAGAA [XGTACX_site3937] | 7 |

| Sequence | gcPBM binding intensity (ln) |
| --- | --- |
| TATTCTTACACGTTTGCACACTAAAATATATATATA [CACACA_site435] | 8.63 |
| CATAGGAACATAAGTTGTACGCTATACATACAACAT [XGTACX_site1054] | 7 |
| ATTTAATATATTTATTGTACATATAAAATAAAAGAA [XGTACX_site2413] | 7.14 |
| TAATAATAATACCAGCGTACATTTTTCTTTCCTACG [XGTACX_site4056] | 6.94 |
| TGAAAATTAATAAAAAGTACATAGTCAGATTTGTGA [XGTACX_site2450] | 6.99 |
| TCTGTGTTTTTGGGTACACACAAATAGCTTGTATAT [CACACA_site4002] | 7.16 |
| TTCCTTAATCAATATTGTACTTTTTATAAATTTAGT [XGTACX_site3678] | 7.13 |
| TATTTTTTCTTAAACACACACATATATATATATAAT [CACACA_site5567] | 7.27 |
| ATAAAGAAAAGGAACACACAAATATGTAAATATGTA [CACACA_site6356] | 6.82 |
| TTACACATAAATACCATATAAATATAATGCATATCT [CACACA_negctrl_site1731] | 7 |
| TAAAATATTATCTACGCACACATTAAAATAAAAAAA [CACACA_site3709] | 7.17 |
| AAAACATTATTCCATACACACCATACTTTTTAATAA [CACACA_site7326] | 7.3 |
| CATTTGCACACGCACACACACATAAAAAGAAAAATA [CACACA_site6297] | 7.71 |
| TATGTAGATAAATAAGCACACACCAAACATATAAAA [CACACA_site1182] | 7.16 |
| ATCAGTCGAGATGACAGTACACAGTAGCCAGGAAAT [XGTACX_site4932] | 6.98 |
| TATATATATTTAAAAAGTACAAAAAAAAAAAATGAA [XGTACX_site374] | 6.99 |
| AATAATAAACACAATCAAATAAAATATGAAATATAA [GTGCAC_negctrl_site307] | 6.79 |
| CCCTGAGCACTTTCGTGTACTAATAGTAACAATAAT [XGTACX_site1418] | 7.66 |
| AAATGTTGAAATGATACACACATATAAATATAAATA [CACACA_site7229] | 6.94 |
| AAACAAATGTATATGTGTACTTATTTTTTTGTATGT [XGTACX_site7134] | 7.18 |
| TTAATTTGTAAATAATGTACATATAAATGGAAAGTA [XGTACX_site2743] | 7.69 |
| TATTTATTAAAACACACACACACACCGACAAAATAA [CACACA_site4293] | 7.27 |

| Sequence | gcPBM binding intensity (ln) |
| --- | --- |
| TAATAAAACATATATACACACATTATGTATACATAT [CACACA_site1703] | 6.93 |
| TTAATATTTACAAAATGTACAGATTATTTATTGTTG [XGTACX_site1270] | 6.84 |
| AAATATGTCAAATATACACACATAATAACTAGAATA [CACACA_site7151] | 6.91 |
| AATAATTATAATAAGGGTACGTATCTCACAGGAAAA [XGTACX_site4187] | 7.17 |
| TTTTTTAATATTTATACATGCATGCCGATTACTATA [TGCATGCA_site26] | 7.03 |
| ACAATACAAATATATACACACATACATACATACATA [CACACA_site5699] | 7.37 |
| ATATATATATATATATGTACATAATTAATAATTAGA [XGTACX_site5672] | 9.37 |
| TAATATCATTTAGACACACACTCTTACAATATGTAA [CACACA_site5434] | 6.8 |
| TCTATTAACTGATGTGCATGTTATAACCTAGAAGTA [TGCATGCA_site359] | 7.42 |
| AGTTCGAATATATAAAGTACATAATTATATATTTGC [XGTACX_site2604] | 6.86 |
| AAAAATCGATACAAGCGTACAAAATAAAATAAAAAT [XGTACX_site5546] | 7.09 |
| ACCAATAATATACATACACACATAAAGGTTTATATA [CACACA_site315] | 7.14 |
| TTACACATATTATATATATATAAAAAAAAAAAATAT [CACACA_negctrl_site1684] | 7.15 |
| TAAATTGAGTATATTACACACATATAAATATATTAT [CACACA_site4027] | 6.88 |
| TCTTATCCTACTTTTATTTTTACTTTTTTTTCTTAT [CACACA_negctrl_site111] | 7.07 |
| TATATATATATATGTATATATGTATATCTATATTTA [CACACA_negctrl_site131] | 9.31 |
| TGGATTCGTATATGTAGTACTATTTATATGTGATTT [XGTACX_site1581] | 7.12 |
| AATATATACCAACATAAATATATATATATATATATA [TGCATGCA_negctrl_site334] | 9.89 |
| TAATAAATATATAATTGTACTTAAAAGAATATAAAA [XGTACX_site2928] | 6.96 |
| AAGTGTATATAAAAATGTACATATTTCGATTTAAAT [XGTACX_site4161] | 7.11 |
| TCACATATTATCTTTACACACTATATATAAGTTTTA [CACACA_site2790] | 7.23 |
| TCATGTTTTACAAAAACACACAAATGAATATAAACC [CACACA_site1161] | 7.3 |
